Screen size: about 310,000 compounds; about 14,000 (4.5%) showed an effect of 50% or more. The effect is printed as a negative number. This is one part of the list.
Target: human ether-à-go-go-related gene (hERG) potassium channel (human, UniProt Q12809)
Experiment: primary screen, population patch clamp on CHO cells stably expressing hERG
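Further: peak tail current of the secondary pulse compared with the same well before compound.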

human ether-à-go-go-related gene (hERG) potassium channel, sequence (Q12809 whole entry, looked up): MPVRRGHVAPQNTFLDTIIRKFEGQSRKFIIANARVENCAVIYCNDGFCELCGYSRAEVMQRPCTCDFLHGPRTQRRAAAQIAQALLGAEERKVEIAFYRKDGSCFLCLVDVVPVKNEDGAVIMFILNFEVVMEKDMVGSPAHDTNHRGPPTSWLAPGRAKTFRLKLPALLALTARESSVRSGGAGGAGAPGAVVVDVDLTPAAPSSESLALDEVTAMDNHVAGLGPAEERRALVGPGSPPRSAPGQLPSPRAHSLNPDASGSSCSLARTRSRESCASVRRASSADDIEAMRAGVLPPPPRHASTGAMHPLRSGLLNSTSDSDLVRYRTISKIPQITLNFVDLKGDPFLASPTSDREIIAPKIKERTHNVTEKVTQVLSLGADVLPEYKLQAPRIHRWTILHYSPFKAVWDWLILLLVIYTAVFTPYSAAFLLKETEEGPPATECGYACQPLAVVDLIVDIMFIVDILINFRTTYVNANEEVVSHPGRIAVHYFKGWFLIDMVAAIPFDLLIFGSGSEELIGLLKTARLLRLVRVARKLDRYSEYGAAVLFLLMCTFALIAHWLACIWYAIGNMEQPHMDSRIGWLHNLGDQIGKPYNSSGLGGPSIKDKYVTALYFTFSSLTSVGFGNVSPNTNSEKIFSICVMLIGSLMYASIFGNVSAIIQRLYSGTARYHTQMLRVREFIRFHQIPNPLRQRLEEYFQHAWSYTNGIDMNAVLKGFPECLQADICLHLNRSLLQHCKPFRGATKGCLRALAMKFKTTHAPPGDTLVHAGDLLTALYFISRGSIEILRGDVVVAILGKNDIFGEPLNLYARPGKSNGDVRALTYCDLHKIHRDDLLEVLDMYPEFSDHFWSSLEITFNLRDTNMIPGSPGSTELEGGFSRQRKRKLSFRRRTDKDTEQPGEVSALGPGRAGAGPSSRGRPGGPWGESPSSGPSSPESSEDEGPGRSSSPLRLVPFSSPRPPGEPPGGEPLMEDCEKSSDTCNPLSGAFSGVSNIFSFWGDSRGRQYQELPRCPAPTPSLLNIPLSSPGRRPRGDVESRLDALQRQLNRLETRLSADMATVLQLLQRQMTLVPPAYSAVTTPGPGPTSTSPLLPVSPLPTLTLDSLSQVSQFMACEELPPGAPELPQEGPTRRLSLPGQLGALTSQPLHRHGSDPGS

Row | Compound | hERG current change (%, negative = inhibition) at 10uM
1 | COc1ccc(-c2n[nH]c(=S)n2/N=C/c2cccn2C)cc1 | 13.2%
2 | COC(=O)Cn1cnc2sc(C)c(S(=O)(=O)N3CCN(c4ccccc4OC)CC3)c2c1=O | -5.55%
3 | COc1ccc(OCCCN2CCCCCC2)cc1.O=C(O)C(=O)O | -19.3%
4 | CN(C)CCNC(=S)Nc1ccc(Cl)cc1Cl.Cl | -12.3%
5 | O=C(CNC(=O)C(c1ccccc1)c1ccccc1)N/N=C\c1ccc2c(c1)OCO2 | 8.08%
6 | O=C(NC1CCCC1)c1ccc2c(c1)N(Cc1ccccc1)CCS2 | -10.9%
7 | Cc1ccc(S(=O)(=O)N(C)C)cc1NC(=O)COC(=O)c1c(C)noc1C | -5.78%
8 | CCN1CC2=C(OC(N)=C(C#N)C2c2ccccc2)/C(=C\c2ccccc2)C1 (stereo not shown) | -6.02%
9 | COc1ccc2c(C)c(CCC(=O)NC3CC3)c(=O)oc2c1 | 7.88%
10 | Cc1cc(C)cc(C(=O)NC(CC(N)=O)c2ccc(N3CCN(C)CC3)c([N+](=O)[O-])c2)c1 (stereo not shown) | 14.5%
11 | c1ccc(-c2ncc3ccccn23)cc1 | -3.24%
12 | COc1ccc(Nc2ccccc2C(=O)O)cc1 | 12%
13 | COc1ccc(NC(=O)Nc2ccccc2OC)cc1 | -7.12%
14 | CCN1CCN(c2c(C(=O)c3ccc(OC)cc3)cnc3ccccc23)CC1 | -80.3%
15 | COc1cc(-c2nnc(SCc3ccccc3Cl)o2)cc(OC)c1OC | 2.94%
16 | Cc1cccc(C)c1NC(=O)Cn1nnnc1N | 10.4%
17 | COc1ccc(N2CCN(CCCNC(=S)Nc3c(C)cccc3C)CC2)cc1 | -52.4%
18 | Cc1ccc(Cl)cc1-n1c(=O)cc(N2CCN(C(=O)c3ccco3)CC2)[nH]c1=O | 6.02%
19 | Cl.N=c1c2c(n(Cc3ccc(F)cc3)c3c1CCC3)CCCC2 | -11.6%
20 | Cc1c(C(=O)NCCSCc2c(F)cccc2Cl)cnn1-c1ccc(F)cc1 | -45.7%
21 | O=C(N/N=C\c1ccc(F)cc1)c1ccc(Cn2cc(Br)c([N+](=O)[O-])n2)o1 | -59.9%
22 | O=[N+]([O-])c1ccc(C=Nc2ccc(Cl)cc2Cl)s1 | -5.42%
23 | O=C(NNC(=S)NC1CC2C=CC1C2)c1cccnc1 (stereo not shown) | 18.9%

Row | Compound | hERG current change (%, negative = inhibition) at 10uM
24 | COc1ccccc1N1CCN(/N=C\c2sccc2C)CC1 | -3.44%
25 | CCCNC(=O)C(Cc1ccccc1)NC(=O)c1ccc(C(C)(C)C)cc1 (stereo not shown) | -8.27%
26 | O=C(NNS(=O)(=O)c1ccccc1C(F)(F)F)c1cccc(S(=O)(=O)Nc2ccccc2Cl)c1 | -4.15%
27 | Cc1ccc(OCC(=O)NC(C)c2ccc(Cl)c(Cl)c2)c([N+](=O)[O-])n1 (stereo not shown) | -21.4%
28 | O=C(NCC1CCCO1)C1CCN(S(=O)(=O)Cc2ccccc2)CC1 (stereo not shown) | 9.86%
29 | CC(OC(=O)c1cccc(NS(C)(=O)=O)c1)C(=O)Nc1ccc2c(c1)OCO2 (stereo not shown) | -36.3%
30 | Cc1nn(C(C)CC(=O)O)c(C)c1Br (stereo not shown) | 10.4%
31 | COc1ccccc1CNC(=O)c1cc(-c2cccnc2)nc2ccccc12 | -12.1%
32 | CC(=O)N(c1cccc(Br)c1)c1nc(C)cc(C)c1C#N | 8.79%
33 | CC(C)(C)n1nnnc1C(c1cccnc1)N(Cc1ccccc1)Cc1cccs1 (stereo not shown) | -11.2%
34 | COc1ccc(NC(=O)c2cc(-c3ccccc3)on2)cc1OC | 19.5%
35 | O=C(CCC(=O)NC1CCN(Cc2ccccc2)CC1)NCc1ccco1 | -1.88%
36 | CN(Cc1ccccc1)C(=O)Cn1cccc1C(=O)c1ccccc1 | 14.6%
37 | COc1ccc(NC(=O)CCN2CCN(S(=O)(=O)c3ccc(F)cc3)CC2)cc1 | -6.32%
38 | O=C(Cn1c(NCCO)nc2ccccc21)c1ccccc1 | 15.7%
39 | Cc1cccc(C(C)C)c1NC(=O)Cc1ccc(S(=O)(=O)N2CCOCC2)s1 | -15.6%
40 | CC(=O)c1ccc(N2C(=NC(=O)C(C)C)SC3CS(=O)(=O)CC32)cc1 (stereo not shown) | -0.23%
41 | CCN(CC)P(=S)(c1c(C)nc2ccccn12)c1c(C)nc2ccccn12 | -9.33%
42 | Clc1cccc(Cl)c1Cn1c(-c2cccnc2Cl)nc2ccccc21 | -25.2%
43 | Cc1ccc(CSCC(=O)Nc2ccccc2C(=O)O)cc1 | 27.1%
44 | COc1ccccc1N1CCN(C(=S)NC(=O)/C=C/c2ccccc2)CC1 | 2.65%
45 | CCCC1Cc2c(sc(N)c2C#N)CO1 (stereo not shown) | 2.5%
46 | CCn1c(NN=O)nc2ccccc21 | 15.6%

Row | Compound | hERG current change (%, negative = inhibition) at 10uM
47 | CC(Sc1nnc(NC(=O)c2cc3ccccc3oc2=O)s1)c1ccccc1 (stereo not shown) | 13.3%
48 | COc1cc(N)c(Cl)cc1C(=O)OCC(=O)N1CCCC1 | 18.8%
49 | COCc1cc(C)nc2oc(C(=O)c3ccccc3)c(N)c12 | -2.3%
50 | CC(=O)N1N=C(c2ccco2)CC1c1ccco1 (stereo not shown) | 17.9%
51 | CC(C)(C)OC(=O)N1CCC2(CC1)C(C#N)=C(N)OC1=C2C(=O)CCC1 | -1.79%
52 | COc1ccc(NC(=O)C2=C(C)NC(=S)NC2c2ccc(O)c(OC)c2)cc1 (stereo not shown) | 18.9%
53 | Cc1onc(-c2ccccc2)c1-c1nc2cc(Cl)ccc2c(=O)o1 | 10.9%
54 | Cc1cccc(OCC(=O)O/N=C(\N)c2ccncc2)c1 | 8.79%
55 | O=C(CS(=O)(=O)c1c[nH]c2ccccc12)N1CCCc2ccccc21 | 5.72%
56 | COc1ccc(NC(=O)CNC(=O)c2cccs2)cc1Cl | 6.73%
57 | CCCc1cc(=O)oc2c(CNc3ccc(OCC)cc3)c(O)ccc12.Cl | 4.56%
58 | COCCn1c(N)c(N(Cc2ccccc2)C(=O)C2CCCCC2)c(=O)[nH]c1=O | 9.26%
59 | CN(C)c1ccc(C2CC(=O)C=C(Nc3ccccc3N)C2)cc1 (stereo not shown) | 5.99%
60 | CSc1nc(C)c(Oc2ccccc2)c(=O)n1C | 5.82%
61 | Cc1nn(C)c(Cl)c1/C=C/C(=O)O | 14.9%
62 | CC(Oc1ccc(F)cc1)C(=O)N1CCN(c2ncccn2)CC1 (stereo not shown) | -6.69%
63 | Cc1ccc(/C=C/S(=O)(=O)NCC(=O)OCC(=O)N2CC(=O)Nc3ccccc32)cc1 | -28.1%
64 | Cc1ccc(C(=O)N/C(=C/c2ccco2)C(=O)NCc2ccco2)cc1 | -12%
65 | CC(C)(C)c1cc(OC(=O)c2ccncc2)ccc1O | 9.1%
66 | CCC(C(=O)O)n1c2ccccc2c2cn[nH]c(=O)c21 (stereo not shown) | 15.5%
67 | Br.N=C1c2ccccc2CN1NC(=O)c1ccc(Br)cc1 | -6.17%
68 | O=C(CSc1nc2ccccc2o1)NC(=O)NCc1ccccc1 | 8.99%
69 | COC(=O)C1=C(c2ccc(F)cc2F)C[C@@H]2CC[C@H]1N2C(=O)NCCOc1ccccc1Cl | -8.64%

Row | Compound | hERG current change (%, negative = inhibition) at 10uM
70 | CC12CN3CCN(C1)CC(C)(C3)C2=NO | 8.25%
71 | Cl.Nc1cc(Cl)ccc1N1CCCCCC1 | 3.2%
72 | C(=N\Nc1nc2ccccc2[nH]1)/c1c[nH]c2ccccc12 | -11.9%
73 | Cc1cccc(CC(=O)NCC2CCCCC2)c1 | -0.319%
74 | O=C1CC2(CCN(S(=O)(=O)c3ccccc3)CC2)Oc2ccccc21 | -84.6%
75 | Cc1nc(N)sc1C(=O)N1N=N1 | 28.9%
76 | CC(Sc1nncs1)C(=O)NCc1ccc2c(c1)OCO2 (stereo not shown) | 8.23%
77 | CCOc1ccc(C)cc1S(=O)(=O)N1CCCCC1 | -1.81%
78 | Cc1cc(F)ccc1S(=O)(=O)N1CCC2(CC1)OCCN2S(=O)(=O)c1cccs1 | -18.3%
79 | CCC1CCCCN1S(=O)(=O)c1ccc([N+](=O)[O-])cc1 (stereo not shown) | -6.42%
80 | CS(=O)(=O)N1CCc2cc(S(=O)(=O)NCCNS(=O)(=O)c3ccc4c(c3)CCN4S(C)(=O)=O)ccc21 | 7.96%
81 | CC(C)c1csc(CN2CCC(N3CCC(C(=O)N4CCOCC4)CC3)CC2)n1 | -40.8%
82 | COc1ccc(CCNC(=O)c2cc(-c3ccc(Cl)c(Cl)c3)oc2C)cc1 | -2.58%
83 | CC(=O)Nc1ccc(NS(=O)(=O)c2ccc(Cl)c(C(=O)O)c2)cc1 | 0.754%
84 | CO/N=C(\c1nonc1N)N1CCN(c2ccc(Cl)cc2[N+](=O)[O-])CC1 | 8.71%
85 | CCCCn1c(N)c(N(CCOC)C(=O)c2ccc3c(c2)C(=O)N(c2ccccc2C)C3=O)c(=O)[nH]c1=O | 4.8%
86 | CS(=O)(=O)N(CC(=O)NCC1CCCO1)Cc1ccc(Cl)cc1 (stereo not shown) | 10.2%
87 | CC(=O)Nc1ccc(NC(=O)C2CC(=O)N(c3ccccc3Cl)C2)cc1 (stereo not shown) | 16%
88 | O=c1cc(CSc2nnnn2-c2ccccc2)nc2nc[nH]n12 | 17.9%
89 | Fc1cccc(Cl)c1CNCc1cccnc1 | 7.68%
90 | COc1ccc(C(C)=O)cc1CN1C(=O)NC2(CCCCCCC2)C1=O | 14.8%
91 | O=C(Cn1c(=O)oc2ccccc21)NCCc1ccccc1Cl | 9.25%

From paper PMC4336329 (PLoS ONE, 2015)
